Some of the results follow. The full chains were built here from the parent and the listed change. Values near 0.05 are background.
B1: TEV protease; numbered along this chain (parent)
chain: MGESLFKGPRDYNPISSSICHLTNESDGHTTSLYGIGFGPFIITNKHLFRRNNGTLVVQSLHGVFKVKDTTTLQQHLVDGRDMIIIRMPKDFPPFPQKLKFREPQREERICLVTTNFQTKSMSSMVSDTSCTFPSGDGIFWKHWIQTKDGQCGSPLVSTRDGFIVGIHSASNFTNTNNYFTSVPKNFMELLTNQEAQQWVSGWRLNADSVLWGGHKVFMVKPEEPFQPVKEATQL

Variants of: B1
Experiment: raw area under fraction-flipped curve 0-4 h after induction (AUC4h, not background-subtracted), DNA-recorder readout of cleavage of the substrate (dimensionless); higher = more cleavage of the substrate by the protease variant
Details: temperature: 34 °C; time window: 0-4 h after rhamnose induction
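Note: Bxb1 expression induced with 0.2% (w/v) L-rhamnose at OD600 near 0.5, cultures sampled hourly, flipped fraction per protease–substrate barcode pair counted by paired-end Illumina sequencing.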

Variant	area with substrate ECLYFQS	area with substrate EDLYFQS	area with substrate EFLYFQS	area with substrate EHLYFQS	area with substrate EILYFQS	area with substrate EKLYFQS	area with substrate EMLYFQS	area with substrate ERLYFQS	area with substrate ESLYFQS	area with substrate ETLYFQS	area with substrate EVLYFQS	area with substrate ELLYFQS	area with substrate EPLYFQS	area with substrate EWLYFQS	area with substrate EGLYFQS	area with substrate EQLYFQS	area with substrate EALYFQS	area with substrate EELYFQS	area with substrate EYLYFQS
E224S	0.103	0.116	0.103	0.0931	0.0691	0.0995	0.0926	0.0894	0.0937	0.158	0.119								
E224V	0.0823	0.118		0.0791	0.0897			0.0992	0.105	0.134		0.0617	0.115	0.0679					
R160K	0.0967			0.0937	0.0872				0.125		0.0919	0.089	0.13		0.0973	0.0564			
W144M	0.0885				0.0923	0.0928	0.0917	0.103	0.101			0.0845		0.0803		0.0995	0.0958		
W144N	0.0769		0.0799			0.07		0.0875	0.0979	0.0732	0.0826	0.0899		0.0707	0.0782	0.092		0.0831	
W144V	0.0887	0.107	0.102	0.096	0.0882	0.0705		0.0838	0.0827		0.087	0.0879	0.0935		0.0994		0.0826	0.106	0.0578
T192G	0.105				0.0982			0.0706	0.0965		0.0904		0.104			0.0463		0.117	0.0978
M88H	0.0591		0.0392				0.0481						0.0554		0.0599	0.0662			
M88C	0.101						0.0964		0.0983				0.124	0.0802	0.12				0.0914
M88D	0.0497				0.0374			0.0207	0.0543			0.0411				0.0107			
A232W	0.145				0.119		0.112	0.0961	0.102		0.0689			0.0857		0.108			
A232H	0.111	0.117			0.102			0.132	0.0969	0.155	0.128					0.153		0.123	
K216I	0.091		0.0744					0.135			0.054			0.0782		0.0921			0.1
L56I	0.115	0.135			0.0871		0.0733		0.106	0.133	0.0712	0.132	0.192	0.0919		0.0955			
L56P	0.0346	0.0496			0.0552			0.0402					0.0365	0.0526	0.0275	0.0477		0.0497	
L56W	0.0605	0.0787	0.0619	0.0541	0.0965	0.0593	0.057	0.0644	0.0629	0.0597	0.0581	0.0573	0.0702	0.0927	0.0641	0.0735		0.0701	0.0557

Variant	area with substrate ECLYFQS	area with substrate EDLYFQS	area with substrate EFLYFQS	area with substrate EHLYFQS	area with substrate EILYFQS	area with substrate EKLYFQS	area with substrate EMLYFQS	area with substrate ERLYFQS	area with substrate ESLYFQS	area with substrate ETLYFQS	area with substrate EVLYFQS	area with substrate ELLYFQS	area with substrate EPLYFQS	area with substrate EWLYFQS	area with substrate EGLYFQS	area with substrate EQLYFQS	area with substrate EALYFQS	area with substrate EELYFQS	area with substrate EYLYFQS
T176M	0.0738	0.0873			0.0664	0.0699	0.0741	0.0793	0.0813	0.0849		0.0587		0.088		0.0704		0.0752	0.087
T176S	0.0893	0.112	0.116		0.0866	0.0836	0.0965		0.0798	0.0982	0.0691	0.0732		0.0904	0.0577	0.0705		0.0969	0.095
C152D	0.0611			0.0647	0.0351	0.059	0.0581		0.0617	0.0633		0.0414	0.0455	0.0656	0.0553	0.0492		0.0621	
C152E	0.0671		0.0521		0.0585	0.0576	0.0614	0.0692	0.0668		0.0851	0.0582	0.0645	0.0607				0.0583	0.0495
C152W	0.0575			0.0543	0.0654	0.0688	0.0631	0.0608	0.0547	0.0535	0.0639	0.0431	0.0484			0.0673		0.0996	0.0554
C152M	0.06				0.0632					0.061				0.075					
G80T	0.109	0.126		0.106	0.099	0.104	0.156		0.121	0.163				0.0123				0.119	0.105
P104F	0.0555				0.0499		0.043									0.0602		0.0342	
P104I	0.0616	0.0822	0.068	0.068	0.0625	0.058	0.0778	0.0727	0.0663	0.108	0.0505	0.0806	0.0684	0.0601	0.132	0.0601		0.0637	
L112W	0.0819	0.1			0.057	0.0655	0.077		0.0738		0.087	0.0755		0.0635	0.0588	0.0846		0.0769	
P184I	0.0736	0.0922			0.0662	0.0731	0.0767	0.0846	0.0623		0.0699		0.0815		0.0752	0.073		0.0767	
P184W	0.0675	0.0547			0.0771	0.0679	0.0679		0.0598		0.0755	0.0631	0.0588	0.0606	0.0435	0.0726		0.0573	
P184V	0.093	0.095	0.0682		0.069	0.089	0.0697	0.0761	0.0718	0.143		0.0609		0.0731		0.0819		0.0895	0.0799
L48W	0.0629		0.0592	0.0438	0.0722	0.0576		0.0614	0.0621	0.0624	0.069		0.0619	0.0594	0.111	0.0525		0.0751	0.0596
D128C	0.155	0.153	0.141	0.156	0.101	0.116		0.121	0.106	0.152	0.162	0.142	0.0537			0.133		0.113	
